Data as given in the supplement of paper PMC12217912.
The list shows a part of the results. Sequences were assembled here from the parent chain. Values near 0.05 are background.

B1: TEV protease; numbered along this chain (parent)
chain: MGESLFKGPRDYNPISSSICHLTNESDGHTTSLYGIGFGPFIITNKHLFRRNNGTLVVQSLHGVFKVKDTTTLQQHLVDGRDMIIIRMPKDFPPFPQKLKFREPQREERICLVTTNFQTKSMSSMVSDTSCTFPSGDGIFWKHWIQTKDGQCGSPLVSTRDGFIVGIHSASNFTNTNNYFTSVPKNFMELLTNQEAQQWVSGWRLNADSVLWGGHKVFMVKPEEPFQPVKEATQL

Variants of: B1
Test: raw area under fraction-flipped curve 0-4 h after induction (AUC4h, not background-subtracted), DNA-recorder readout of cleavage of the substrate (dimensionless); higher = more cleavage of the substrate by the protease variant
Conditions: temperature: 34 °C; time window: 0-4 h after rhamnose induction
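Also: Bxb1 expression induced with 0.2% (w/v) L-rhamnose at OD600 near 0.5, cultures sampled hourly, flipped fraction per protease–substrate barcode pair counted by paired-end Illumina sequencing.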

Variant	area with substrate EELYFQS	area with substrate EGLYFQS	area with substrate EILYFQS	area with substrate EKLYFQS	area with substrate ELLYFQS	area with substrate EQLYFQS	area with substrate ERLYFQS	area with substrate ESLYFQS	area with substrate EHLYFQS	area with substrate EPLYFQS
MGESLFKGPRDYNPISSSICHLTNESDGHTTSLYGIGFGPFIITNKHLFRRNNGTLVVQSLHGVFKVKDTTTLQQHLVDGRDMIIIRMPKDFPPFPQKLKFREPQREERICLVTTNFQTKSMSSMVSDTSCTFPSGDGIFWKHWIQTKDGQCGSPLVSTRDGFIVGIHSASNFTNTNNYFTSVPKNFMELLTNQEAQQWVSGWRLNADSVLWGLHKVFMVKPEEPFQPVKEATQL [G214L]	0.0963	0.0473	0.0663	0.138	0.0755	0.0705	0.0628	0.0695	–	–
MGESLFKGPRDYNPISSSICHLTNESDGHTTSLYGIGFGPFIITNKHLFRRNNGTLVVQSLHGVFKVKDTTTLQQHLHDGRDMIIIRMPKDFPPFPQKLKFREPQREERICLVTTNFQTKSMSSMVSDTSCTFPSGDGIFWKHWIQTKDGQCGSPLVSTRDGFIVGIHSASNFTNTNNYFTSVPKNFMELLTNQEAQQWVSGWRLNADSVLWGGHKVFMVKPEEPFQPVKEATQL [V78H]	0.0849	–	–	–	–	0.0518	–	0.0734	0.0113	0.0388
MGESLFKGPRDYNPISSSICHLTNESDGHTTSLYGIGFGPFIITNKHLFRRNNGTLVVQSLHGVFKVKDTTTLQQHLVDGRDMIIIRMPKDFPPFPQKLKFREPQREERICLVTTNFQTKSMSSMVSDTSCTFPSGDGIFWKHWIQTKDGQCGSPLVSTRDGFIVGIHSASNFTNTNNYFTSVPKNFMELLTNQEAQQWVSGWRLNADSVLWGGHKVFMVKPEEPFQTVKEATQL [P228T]	0.103	0.089	0.0828	–	–	–	–	–	–	0.11
MGESLFKGPRDYNPISSSICHLTNESDGHTTSLYGIGFGPFIITNKHLFRRNNGTLVVQSLHGVFKVKDTTTLQQHLVDGRDMIQIRMPKDFPPFPQKLKFREPQREERICLVTTNFQTKSMSSMVSDTSCTFPSGDGIFWKHWIQTKDGQCGSPLVSTRDGFIVGIHSASNFTNTNNYFTSVPKNFMELLTNQEAQQWVSGWRLNADSVLWGGHKVFMVKPEEPFQPVKEATQL [I85Q]	0.0524	0.0556	0.0648	0.0607	–	0.0503	0.0534	0.0567	0.0484	–
MGESLFKGPRDYNPISSSICHLTNESDGHTTSLYGIGFGPFIITNKHLFRRNNGTLVVQSLHGVFKVKDTTTLQQHLVDGRDMIIIRMPKDFPPFPQKLKFREPQREERICLVTTNFQTKSMSSMVSDTSCTFPSGDGIFWKHWIQTKDGQCGSPLVSTRDGFIVGIHSASNFTNTNNYFTSVPKNFMELLTNQEAQQWVSGWRLNADTVLWGGHKVFMVKPEEPFQPVKEATQL [S209T]	0.124	–	–	0.121	–	–	0.138	0.116	–	–
MGESLFKGPRDYNPISSSICHLTNESDGHTTSLYGIGFGPFIITNKHLFRRNNGTLVVQSLHGVFKVKDTTTLQQHLVDGRDMIIIRMPKDFPPFPQKLKFREPQREERICLVTTNFQTKSMSSMVSDTSCTFPSGDGIFWKHWIQTKDGQCGSPLVSTRDGFIVGIHSASNFTNTNNYFTSVPKNFMELLTNQEAQQWVSGWRLNADSVLWGGHKVFMVKPEEPFQPVKDATQL [E231D]	0.116	0.0911	–	0.0959	0.103	–	–	0.127	0.113	–
MGESLFKGPRDYNPISSSICHLTNESDGHTTSLYGIGFGPFIITNKHLFRRNNGTLVVQSLHGVFKVKDTTTLQQHLVDGRDMIIIRMPKDFPPFPQKLKFREPQREERICLVTTNFQTKSMSSMVSDTSCTFPSGDGIFWKHWIQTKDGQCGSPLVSTRDGFIVGIHSASNFTNTNNYFTSVPKNFMELLTNQEAQQWVSGWRLNADSVLWGGHKVFMVKPEEPFQPVKEDTQL [A232D]	0.191	–	0.1	0.108	–	–	0.121	0.12	–	–
MGESLFKGPRDYNPISSSICHLTNESDGHTTSLYGIGFGPFIITNKHLFRRNNGTLVVQSLHGVFKVKDTTTLQQHLVDGRDMIIIRMPKDFPPFPQKLKFREPQREERICLVTTNFQTKSMSSMVSDTSCTFPSGDGIFWKHWIQTKDGQCGSPLVSTRDGFIVGIHSASNFTNTNNYFTSVPKNFMELLTNQEAQQWVSGWRLNADSALWGGHKVFMVKPEEPFQPVKEATQL [V210A]	0.0959	–	–	0.107	–	–	–	–	–	–
MGESLFKGPRDYNPISSSICHLTNESDGHTTSLYGIGFGPFIITNKHLFRRNNGTLVVQSLHGVFKVKDTTTLQQHLVDGRDMIIIRMPKDFPPFPQKLKFREPQREERICLVTTNFQTKSMSSMVSDTSCTFPSGDGIFWKHWIQTKDGQCGSPLVSTRDGGIVGIHSASNFTNTNNYFTSVPKNFMELLTNQEAQQWVSGWRLNADSVLWGGHKVFMVKPEEPFQPVKEATQL [F163G]	0.138	–	–	0.141	–	–	–	–	–	–
MGESLFKGPRDYNPISSSICHLTNESDGHTTSLYGIGFGPFIITNKHLFRRNNGTLVVESLHGVFKVKDTTTLQQHLVDGRDMIIIRMPKDFPPFPQKLKFREPQREERICLVTTNFQTKSMSSMVSDTSCTFPSGDGIFWKHWIQTKDGQCGSPLVSTRDGFIVGIHSASNFTNTNNYFTSVPKNFMELLTNQEAQQWVSGWRLNADSVLWGGHKVFMVKPEEPFQPVKEATQL [Q59E]	0.114	–	0.0972	0.0974	–	0.116	–	0.13	–	0.104

Same assay, conditions: temperature: 34 °C; time window: 0-4 h after rhamnose induction

Variant	area with substrate ETLYFQS	area with substrate EVLYFQS	area with substrate EWLYFQS	area with substrate EMLYFQS	area with substrate EYLYFQS	area with substrate EFLYFQS
MGESLFKGPRDYNPISSSICHLTNESDGHTTSLYGIGFGPFIITNKHLFRRNNGTLVVQSLHGVFKVKDTTTLQQHLHDGRDMIIIRMPKDFPPFPQKLKFREPQREERICLVTTNFQTKSMSSMVSDTSCTFPSGDGIFWKHWIQTKDGQCGSPLVSTRDGFIVGIHSASNFTNTNNYFTSVPKNFMELLTNQEAQQWVSGWRLNADSVLWGGHKVFMVKPEEPFQPVKEATQL [V78H]	0.0695	0.0593	0.0823	–	–	–
MGESLFKGPRDYNPISSSICHLTNESDGHTTSLYGIGFGPFIITNKHLFRRNNGTLVVQSLHGVFKVKDTTTLQQHLVDGRDMIIIRMPKDFPPFPQKLKFREPQREERICLVTTNFQTKSMSSMVSDTSCTFPSGDGIFWKHWIQTKDGQCGSPLVSTRDGFIVGIHSASNFTNTNNYFTSVPKNFMELLTNQEAQQWVSGWRLNADSVLWGGHKVFMVKPEEPFQTVKEATQL [P228T]	0.113	0.106	–	–	–	–
MGESLFKGPRDYNPISSSICHLTNESDGHTTSLYGIGFGPFIITNKHLFRRNNGTLVVQSLHGVFKVKDTTTLQQHLVDGRDMIQIRMPKDFPPFPQKLKFREPQREERICLVTTNFQTKSMSSMVSDTSCTFPSGDGIFWKHWIQTKDGQCGSPLVSTRDGFIVGIHSASNFTNTNNYFTSVPKNFMELLTNQEAQQWVSGWRLNADSVLWGGHKVFMVKPEEPFQPVKEATQL [I85Q]	–	0.0604	–	0.0452	0.0407	–
MGESLFKGPRDYNPISSSICHLTNESDGHTTSLYGIGFGPFIITNKHLFRRNNGTLVVQSLHGVFKVKDTTTLQQHLVDGRDMIIIRMPKDFPPFPQKLKFREPQREERICLVTTNFQTKSMSSMVSDTSCTFPSGDGIFWKHWIQTKDGQCGSPLVSTRDGFIVGIHSASNFTNTNNYFTSVPKNFMELLTNQEAQQWVSGWRLNADTVLWGGHKVFMVKPEEPFQPVKEATQL [S209T]	0.132	–	–	–	–	0.0972
MGESLFKGPRDYNPISSSICHLTNESDGHTTSLYGIGFGPFIITNKHLFRRNNGTLVVQSLHGVFKVKDTTTLQQHLVDGRDMIIIRMPKDFPPFPQKLKFREPQREERICLVTTNFQTKSMSSMVSDTSCTFPSGDGIFWKHWIQTKDGQCGSPLVSTRDGFIVGIHSASNFTNTNNYFTSVPKNFMELLTNQEAQQWVSGWRLNADSVLWGGHKVFMVKPEEPFQPVKDATQL [E231D]	0.161	–	–	0.111	–	–
MGESLFKGPRDYNPISSSICHLTNESDGHTTSLYGIGFGPFIITNKHLFRRNNGTLVVQSLHGVFKVKDTTTLQQHLVDGRDMIIIRMPKDFPPFPQKLKFREPQREERICLVTTNFQTKSMSSMVSDTSCTFPSGDGIFWKHWIQTKDGQCGSPLVSTRDGFIVGIHSASNFTNTNNYFTSVPKNFMELLTNQEAQQWVSGWRLNADSVLWGGHKVFMVKPEEPFQPVKEDTQL [A232D]	–	0.0884	0.115	–	–	–
MGESLFKGPRDYNPISSSICHLTNESDGHTTSLYGIGFGPFIITNKHLFRRNNGTLVVQSLHGVFKVKDTTTLQQHLVDGRDMIIIRMPKDFPPFPQKLKFREPQREERICLVTTNFQTKSMSSMVSDTSCTFPSGDGIFWKHWIQTKDGQCGSPLVSTRDGFIVGIHSASNFTNTNNYFTSVPKNFMELLTNQEAQQWVSGWRLNADSALWGGHKVFMVKPEEPFQPVKEATQL [V210A]	–	0.0841	–	–	–	–
MGESLFKGPRDYNPISSSICHLTNESDGHTTSLYGIGFGPFIITNKHLFRRNNGTLVVQSLHGVFKVKDTTTLQQHLVDGRDMIIIRMPKDFPPFPQKLKFREPQREERICLVTTNFQTKSMSSMVSDTSCTFPSGDGIFWKHWIQTKDGQCGSPLVSTRDGGIVGIHSASNFTNTNNYFTSVPKNFMELLTNQEAQQWVSGWRLNADSVLWGGHKVFMVKPEEPFQPVKEATQL [F163G]	–	–	0.08	–	–	0.107
MGESLFKGPRDYNPISSSICHLTNESDGHTTSLYGIGFGPFIITNKHLFRRNNGTLVVESLHGVFKVKDTTTLQQHLVDGRDMIIIRMPKDFPPFPQKLKFREPQREERICLVTTNFQTKSMSSMVSDTSCTFPSGDGIFWKHWIQTKDGQCGSPLVSTRDGFIVGIHSASNFTNTNNYFTSVPKNFMELLTNQEAQQWVSGWRLNADSVLWGGHKVFMVKPEEPFQPVKEATQL [Q59E]	0.138	0.0541	0.0995	0.0845	0.0689	0.0799
